Data: PubChem BioAssay AID588591 (National Center for Advancing Translational Sciences (NCATS), 2011)
In all, about 390,000 compounds went through this assay and about 4,700 (1.2%) were called active. Another 4% or so got no clear call; they are omitted. Calls come from the whole dose curve; as a rule, active = well fitted inhibition curve with a large enough effect; inconclusive = small, poorly fitted or top-dose-only effect, or another doubt; inactive = no such curve, though single readings can be large or run the other way. Only a part is listed here, and it is no random draw.
% is set by controls: 0 for no effect and ±100 for the full control effect; potency is the fitted concentration of half-maximal effect.

These compounds were tested against DNA polymerase eta (Homo sapiens) (UniProt Q9Y253) (assay: qHTS for Inhibitors of Polymerase Eta). Settings: recombinant Pol eta, fluorescent DNA replication assay; series mostly up to 114 µM; activity change, negative = inhibition: at the top concentration.
Chain of UniProt Q9Y253 (Q9Y253 whole entry, looked up): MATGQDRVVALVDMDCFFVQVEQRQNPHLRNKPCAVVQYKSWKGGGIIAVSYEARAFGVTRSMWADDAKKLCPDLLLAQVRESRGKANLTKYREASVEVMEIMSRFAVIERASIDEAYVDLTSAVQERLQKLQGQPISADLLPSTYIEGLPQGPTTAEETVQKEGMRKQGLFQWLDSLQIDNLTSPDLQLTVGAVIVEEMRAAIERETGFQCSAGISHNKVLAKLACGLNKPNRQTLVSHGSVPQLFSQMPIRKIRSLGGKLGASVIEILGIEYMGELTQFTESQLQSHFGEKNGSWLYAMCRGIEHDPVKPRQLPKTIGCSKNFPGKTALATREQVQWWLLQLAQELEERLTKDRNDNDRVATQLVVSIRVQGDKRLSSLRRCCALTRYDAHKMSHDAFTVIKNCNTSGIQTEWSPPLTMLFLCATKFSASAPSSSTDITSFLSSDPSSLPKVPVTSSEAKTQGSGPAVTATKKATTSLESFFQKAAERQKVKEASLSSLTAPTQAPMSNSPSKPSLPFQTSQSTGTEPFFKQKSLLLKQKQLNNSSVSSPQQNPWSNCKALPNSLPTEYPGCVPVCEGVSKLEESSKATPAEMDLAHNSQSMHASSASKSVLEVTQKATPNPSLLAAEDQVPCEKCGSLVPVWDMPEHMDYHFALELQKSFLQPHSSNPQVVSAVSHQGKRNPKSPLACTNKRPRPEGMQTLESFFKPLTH
Outline: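 Pol eta at 10 nM preincubated with compounds 15 min at room temperature; reaction started with fluorescent substrate (50 nM final) and read kinetically at 0 and 10 min.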
For `CCN(CC)c1ccc(/C=C(\C#N)C(N)=S)cc1`, the “activity change, negative = inhibition” value was inactive: 39.5%. `S=c1[nH]nc(-c2cc(-c3ccccc3)n[nH]2)n1/N=C/C(Br)=C/c1ccccc1` was tested, and the Potency was active: 50.1 µM. For `O=C(N/N=C/c1cc([N+](=O)[O-])ccc1O)c1c[nH]c2ccccc12`, the “activity change, negative = inhibition” value was inactive: 31.4%. For `C=CC[C@@H](CC(=O)N(CCO)Cc1ccccc1)C(=O)N[C@H](C)COC(=O)[C@@H](CC=C)Cc1ccc(F)cc1`, the “activity change, negative = inhibition” value was inactive: -13.1%. For `S=C(Nc1ccc2c(c1)OCO2)Nc1ccccc1Cl`, the “activity change, negative = inhibition” value was inactive: 31.5%. For `O=C(NCc1ccco1)C1CCCN(S(=O)(=O)c2cccc3nsnc23)C1` (stereo unspecified), the “activity change, negative = inhibition” value was inactive: -7.7%. With `CCC(=O)Nc1ccc(-n2nnnc2SCC(=O)NNC(=O)c2ccco2)cc1` the “activity change, negative = inhibition” value was inactive: 38.9%. For `c1ccc(-c2nnc(-c3ccccn3)nn2)nc1`, the “activity change, negative = inhibition” value was inactive: 35%. `O=C1NC(=Nc2ccccc2)S/C1=C\c1cccs1` was tested, and the “activity change, negative = inhibition” value was inactive: 52.2%. In the case of `O=C(c1cnn2c(-c3ccccc3)cc(-c3ccccc3)nc12)N1CCN(Cc2ccccc2)CC1`, the “activity change, negative = inhibition” value is reported as inactive: 44.1%. In the case of `COc1ccc(/C=C/C(=O)NCC(=O)N=Nc2c(O)[nH]c3ccc([N+](=O)[O-])cc23)cc1`, the Potency is reported as active: 35.5 µM. With `C=CC[C@H](CC(=O)N(CCO)Cc1ccccc1)C(=O)N[C@@H](COC(=O)[C@@H](CC=C)CC(=O)OC(C)(C)C)Cc1c[nH]c2ccccc12` the “activity change, negative = inhibition” value was inactive: -25.9%. In the case of `O=C(CCN1C(=O)/C(=C\c2cccs2)SC1=S)NC1=NCCS1`, the “activity change, negative = inhibition” value is reported as inactive: -18.3%. For `CCCCN(C(=O)c1ccc(-c2ccc([N+](=O)[O-])cc2)o1)c1c(N)n(CC(C)C)c(=O)[nH]c1=O`, the “activity change, negative = inhibition” value was inactive: 16.3%. For `CCC1CN(C(=O)NCc2ccc(F)cc2)c2cc(Cl)ccc2O1` (stereo unspecified), the “activity change, negative = inhibition” value was inactive: -11.3%. With `COc1ccc(N=C2NC(=O)S/C2=C\c2ccc(N(C)C)cc2)cc1` the “activity change, negative = inhibition” value was inactive: 20.9%. `CC1=NN(c2ccccc2)C(=O)C1/C=C1\NC(=S)NC1=O` (stereo unspecified) was tested, and the Potency was active: 3.16 µM. In the case of `CCOCCCNC(=O)c1cn(CC(C)C)c(=O)c2c1c1ccccc1n2C`, the “activity change, negative = inhibition” value is reported as inactive: -3.8%. With `CC(/C=N/n1c(-c2ccc(Cl)cc2)n[nH]c1=S)=C\c1ccco1` the Potency was active: 17.8 µM. With `COc1ccccc1CCNC(=O)c1cc(-c2ccncc2)nc2ccc(Br)cc12` the Potency was active: 44.7 µM. In the case of `CC1(N(O)C=C2C=CC(=O)C=C2)CCCCC1=O` (stereo unspecified), the “activity change, negative = inhibition” value is reported as inactive: 19.3%. For `O=C1/C(=C\c2cccnc2)Sc2ccccc21`, the “activity change, negative = inhibition” value was inactive: -10.7%. In the case of `C=CC[C@@H](Cc1ccc(F)cc1)C(=O)OC[C@@H]1CCCN1C(=O)[C@@H](CC=C)CC(=O)N[C@H](CO)Cc1ccccc1`, the “activity change, negative = inhibition” value is reported as inactive: -26.5%. With `O=C(NCc1ccccc1)C1=C[C@@H](C2CCCCC2)C[C@@H](OCc2ccc(CO)cc2)O1` the “activity change, negative = inhibition” value was inactive: -17.3%. In the case of `COC(=O)c1ccc(C(=O)OC)c(NC(=S)N2CCOCC2)c1`, the “activity change, negative = inhibition” value is reported as inactive: -5.23%. With `C=CC[C@H](CC(=O)OC(C)(C)C)C(=O)OC[C@H]1CCCN1C(=O)[C@@H](CC=C)CC(=O)N(CCO)Cc1ccccc1` the “activity change, negative = inhibition” value was inactive: -17.7%. For `O=C(COc1cc2oc(=O)cc(-c3ccccc3)c2cc1Cl)NC(Cc1c[nH]c2ccc(O)cc12)C(=O)O` (stereo unspecified), the Potency was active: 50.1 µM. With `COc1ccc(OC)c(CNC(=O)CCC(=O)N2Cc3ccccc3Oc3ncccc32)c1` the “activity change, negative = inhibition” value was inactive: 4.32%. `O=C1CCCC(O)=C1Sc1cc(Cl)c(Cl)cc1Cl` was tested, and the “activity change, negative = inhibition” value was inactive: 30.6%. `CN1C(=O)/C(=C/c2cc(N=Nc3ccccc3)ccc2O)SC1=S` was tested, and the “activity change, negative = inhibition” value was inactive: -8.92%. With `Cc1oc(-c2ccc(C(=O)Nc3ccc(F)cc3F)cc2)nc1COc1ccccc1` the “activity change, negative = inhibition” value was inactive: 19.9%. `Cc1cccc(C)c1OCC(=O)N/N=C/C=C/c1ccco1` was tested, and the “activity change, negative = inhibition” value was inactive: 16.6%. `C/C(N)=C(/C#N)C(=O)COC(=O)CCSc1ccccc1` was tested, and the “activity change, negative = inhibition” value was inactive: 5.99%. For `Cn1c(=O)n(C)c2cc([N+](=O)[O-])c(N3CCN(C(=O)c4ccc(F)cc4)CC3)cc21`, the “activity change, negative = inhibition” value was inactive: -11.2%. With `Cc1nnc(SCC(=O)Nc2sccc2C#N)n1Cc1ccccc1` the “activity change, negative = inhibition” value was inactive: -62.7%. `O=C(NCc1ccccc1)c1ccc(S(=O)(=O)Nc2cccc(C(F)(F)F)c2)cc1` was tested, and the “activity change, negative = inhibition” value was inactive: 33.6%. In the case of `O=C1c2cccc3cccc(c23)C(=O)N1c1ccncc1`, the “activity change, negative = inhibition” value is reported as inactive: 8.96%. `COc1ccc(C(=O)N/C(=C\c2cccs2)c2nc3ccccc3[nH]2)cc1OC` was tested, and the “activity change, negative = inhibition” value was inactive: -11.9%. In the case of `COc1ccccc1OCCOc1ccc(/C=C2\C(=N)N3N=C(S(C)(=O)=O)SC3=NC2=O)cc1`, the Potency is reported as active: 22.4 µM. With `CCn1c2c(c(=O)n3ncc(C(=O)N4CCN(c5ccc(C(C)=O)cc5)CC4)c13)CN(Cc1ccc(OC)cc1)CC2` the Potency was active: 89.1 µM. In the case of `O=C(O)c1ccc2c(c1)C(=O)N(c1ccc(/C=C/C(=O)c3ccccc3)cc1)C2=O`, the Potency is reported as active: 22.4 µM. In the case of `O=C1C=C(O)c2[nH]c(=O)ccc2C1=O`, the Potency is reported as active: 17.8 µM. For `CCOC(=O)C(=CNc1cc(C)nn1-c1ccc(Cl)cc1)C(=O)OCC`, the “activity change, negative = inhibition” value was inactive: 2.37%. In the case of `O=C(CCc1ccc(S(=O)(=O)N2CCOCC2)cc1)Nc1nc(COc2ccccc2)cs1`, the “activity change, negative = inhibition” value is reported as inactive: -14%. In the case of `CC1CCC/C(=N\NS(=O)(=O)c2ccccc2)C1` (stereo unspecified), the “activity change, negative = inhibition” value is reported as inactive: 34.2%. For `Fc1ccc(CSc2nnc3ccc(-c4ccncc4)nn23)cc1`, the “activity change, negative = inhibition” value was inactive: 35.6%. With `O=C(O)c1ccc(-n2cccc2/C=C2/NC(=O)N(c3ccccc3)C2=O)cc1` the Potency was active: 2.82 µM. In the case of `CCOc1ccc2c(c1)C(=NNC(=O)c1ccccn1)c1cc(OCC)ccc1-2`, the “activity change, negative = inhibition” value is reported as inactive: 30.2%. `CCCCC(C(=O)O)C(C)CC(=O)Nc1nncs1` (stereo unspecified) was tested, and the “activity change, negative = inhibition” value was inactive: 35.8%. In the case of `O=C(CCn1c(=O)c2cccn2c2ccccc21)Nc1ccc(F)cc1`, the “activity change, negative = inhibition” value is reported as inactive: -4.35%. In the case of `CC(=O)C[C@H](O)CC(=O)[C@@H]1OC(=O)[C@@H](C)C/C=C\Cc2ccccc21`, the “activity change, negative = inhibition” value is reported as inactive: -13.4%. With `CCOc1ccc(NC(=O)C(CC)n2nc(C)c3c(C)n(-c4ccccc4)nc3c2=O)cc1` (stereo unspecified) the “activity change, negative = inhibition” value was inactive: -6.48%. For `COc1ccc([C@H]2C[C@@H](O)[C@H](n3cc(-c4ccc(F)cc4)nn3)CN2CC2CCCCC2)cc1`, the “activity change, negative = inhibition” value was inactive: -9.09%. In the case of `CCN(c1ccccc1)S(=O)(=O)c1nnc(NC(=O)c2ccccc2OC)s1`, the “activity change, negative = inhibition” value is reported as inactive: 13%. With `Oc1cc(O)c2c(c1)OC(c1ccc(O)c(O)c1)C(O)C2` (stereo unspecified) the “activity change, negative = inhibition” value was inactive: -2.93%. In the case of `CCOC(=O)CCn1nnc(N)n1`, the “activity change, negative = inhibition” value is reported as inactive: 126%. `O=C1C=CC(n2cc(F)c(=O)[nH]c2=O)O1` (stereo unspecified) was tested, and the Potency was active: 20 µM. `Cc1cc2c(NS(=O)(=O)c3ccc(F)cc3)cccc2nn1` was tested, and the “activity change, negative = inhibition” value was inactive: 27.4%. For `COc1ccc2c(c1)cc(C(=O)N/N=C/c1c(O)c(C(=O)O)cc3ccccc13)n2C`, the Potency was active: 39.8 µM. With `CC(C)(CS(=O)(=O)[O-])NC(=O)CC[N+](C)(C)CCO` the Potency was active: 0.794 µM. `CN(C(=O)CSc1nnc(-c2ccncc2)n1-c1ccccc1)C1CCS(=O)(=O)C1` (stereo unspecified) was tested, and the “activity change, negative = inhibition” value was inactive: 31%.
